Measured values as given in PubChem BioAssay AID485294 (National Center for Advancing Translational Sciences (NCATS), 2010).
The campaign covered roughly 370,000 compounds. About 150 (0.041%) were called active. The inconclusive results got no clear call from the source; some entries with a clear call stand among them for comparison. Calls follow the shape of the dose curve; as a rule, active = well fitted inhibition curve with a large enough effect; inconclusive = small, poorly fitted or top-dose-only effect; inactive = flat fitted curve, though single readings scatter. Potencies of inconclusive entries are left out as doubtful fits.
Also: nearly all actives have a fitted effect of over 25% in size.
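For activity change, negative = inhibition in this document: 0% = no-compound wells and -100% = no-enzyme wells.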
Potency is read from the fitted curve at half-maximal effect; tags tell the direction and shape of the fitted curve.

What follows are compounds tested against Beta-lactamase (Escherichia coli (strain K12)) (UniProt P00811) (assay: qHTS Inhibitors of AmpC Beta-Lactamase (assay with detergent)). Conditions: AmpC hydrolysis of nitrocefin, absorbance 480 nm, 0.01% Triton; activity change, negative = inhibition: at 114 µM (top of the series).
Chain of UniProt P00811 (P00811 whole entry, looked up): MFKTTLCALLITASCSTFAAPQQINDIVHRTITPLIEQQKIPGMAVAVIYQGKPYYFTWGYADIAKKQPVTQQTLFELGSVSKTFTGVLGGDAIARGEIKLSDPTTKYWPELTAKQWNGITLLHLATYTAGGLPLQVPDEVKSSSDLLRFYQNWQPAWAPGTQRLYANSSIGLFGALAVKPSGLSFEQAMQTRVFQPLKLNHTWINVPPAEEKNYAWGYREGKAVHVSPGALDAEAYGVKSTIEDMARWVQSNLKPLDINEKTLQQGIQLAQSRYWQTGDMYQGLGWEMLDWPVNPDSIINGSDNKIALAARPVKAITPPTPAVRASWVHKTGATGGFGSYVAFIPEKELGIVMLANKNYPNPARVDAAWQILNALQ
Outline: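 AmpC (5.3 nM in the dispensed reagent) in 20 mM phosphate pH 7.0 with 0.01% (detergent screen) or 0.0001% Triton X-100 was preincubated with compounds for 15 min at room temperature. Nitrocefin was then added from an 800 uM solution, and hydrolysis was followed at 480 nm.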
For `CCN1C(=O)c2ccc(C(=O)Nc3ccc(O)cc3C)cc2C1=O`, the “activity change, negative = inhibition” value was inactive: -8.8%. For `CCN(CC)c1ccc(NC(=O)CN2C(=O)c3cccnc3Sc3ccccc32)c(C)c1`, the “activity change, negative = inhibition” value was inactive: 15.4%. With `COCC(=O)N1CCC(Oc2ccc(C(=O)N3C[C@@H]4CCC[C@H]3C4)cc2)CC1` the Potency was inconclusive [inhibitor, full curve, poor fit]. For `CC[C@H](C)C1NC(=O)[C@H](CC(=O)O)NC(=O)c2cc([N+](=O)[O-])cc(I)c2NCCC(C(N)=O)NC1=O` (stereo partly specified), the Potency was inconclusive [inhibitor, partial curve, poor fit]. With `Cc1ccc(S(=O)(=O)N/N=C\c2cn(CC(N)=O)c3ccccc23)cc1` the Potency was inconclusive [inhibitor, full curve]. `CCCCc1cc(=O)oc2cc(OCC(=O)NC(Cc3c[nH]c4ccc(O)cc34)C(=O)O)ccc12` (stereo unspecified) was tested, and the Potency was inconclusive [inhibitor, partial curve]. In the case of `COCCSc1nnc(NC(=O)CS(=O)(=O)c2ccccc2)s1`, the Potency is reported as inconclusive [inhibitor, partial curve]. With `CCN(CC)CCOc1ccc2nc(N(C)C)sc2c1` the “activity change, negative = inhibition” value was inactive: -5.27%. With `CC1CCCC(NCC(O)COC(c2ccc(F)cc2)c2ccc(F)cc2)C1C` (stereo unspecified) the Potency was inconclusive [inhibitor, full curve, poor fit]. In the case of `O=C(Cn1c(=O)c2cccn2c2ccc(F)cc21)N1CCN(c2ccccc2)CC1`, the “activity change, negative = inhibition” value is reported as inactive: 22.9%. For `Clc1nnc(N2CCCCC2)c2ccccc12`, the Potency was inconclusive [inhibitor, full curve, poor fit]. `S=C(Nc1ccccc1)N1N=CCC1c1ccccc1` (stereo unspecified) was tested, and the “activity change, negative = inhibition” value was inactive: 2.57%. With `Cc1cccc(C#Cc2ccccc2)n1` the Potency was inconclusive [inhibitor, full curve]. With `CCn1c(Cc2ccccc2)nnc1SCC(=O)Nc1ccc2c(c1)OCO2` the Potency was inconclusive [inhibitor, full curve, poor fit]. `N#Cc1ccc(C(=O)NCC(c2ccco2)N2CCCC2)cc1` (stereo unspecified) was tested, and the Potency was inconclusive [inhibitor, single point]. `Cc1ccc(Cn2ncc(Cl)c(Cl)c2=O)cc1` was tested, and the “activity change, negative = inhibition” value was inactive: -9.3%. With `CCOc1cccc(C(=O)Nc2ccc3oc(Cc4ccc(Cl)cc4)nc3c2)c1` the Potency was inconclusive [inhibitor, single point]. With `CN(C(=O)Cc1ccc(Cl)c(Cl)c1)C(CN1CCCC1)c1cccc(OCC(=O)O)c1` (stereo unspecified) the Potency was inconclusive [inhibitor, full curve, poor fit]. In the case of `CCn1c(SCC(=O)N2CCCCC2)nc(O)cc1=O`, the Potency is reported as inconclusive [inhibitor, full curve]. `OCC[C@@H]1C[C@@H](O)[C@H](O)[C@]2(CCc3ccccc3O2)O1` was tested, and the Potency was inconclusive [inhibitor, partial curve, poor fit]. `CCc1ccccc1NC(=O)N1C2CCCC1CC(NC(C)=O)C2` (stereo unspecified) was tested, and the Potency was inconclusive [inhibitor, partial curve, poor fit]. `Brc1cccc(-c2nnc3sc(CNCc4ccco4)cn23)c1` was tested, and the Potency was inconclusive [inhibitor, full curve, poor fit]. With `CC(CN1CCCCC1)OC(=O)c1ccc(Cl)cc1` (stereo unspecified) the Potency was inconclusive [inhibitor, full curve, poor fit]. In the case of `OCCCc1nc2n(n1)C(c1ccccc1)C=C(c1ccccc1)N2` (stereo unspecified), the Potency is reported as inconclusive [inhibitor, partial curve, poor fit]. For `Cc1cc(C)n(Cc2ccc(C(=O)Nc3ccc(Br)cc3C)o2)n1`, the Potency was inconclusive [inhibitor, full curve, poor fit]. `CCOC(=O)N1CCC(Nc2ncnc3c2cnn3-c2ccc(C)cc2C)CC1` was tested, and the Potency was inconclusive [inhibitor, full curve, poor fit]. `O=C(OCc1ccccn1)C1CCN(C(=O)c2ccc(Cl)cc2)CC1` was tested, and the Potency was inconclusive [inhibitor, partial curve, poor fit]. For `O=C(Nc1ccc(-c2noc(-c3ccccc3F)n2)cc1)c1cccs1`, the Potency was inconclusive [inhibitor, full curve, poor fit]. `O=C(NC1CCN(Cc2ccccc2)CC1)c1ccccc1Cl` was tested, and the Potency was inconclusive [inhibitor, partial curve, poor fit]. For `O=C1CSC(c2cn(-c3ccccc3)nc2-c2cc3ccccc3oc2=O)N1Cc1ccco1` (stereo unspecified), the Potency was inconclusive [inhibitor, full curve, poor fit]. In the case of `O=C(CN1C(=O)CSc2ncccc21)Nc1cccc(Cl)c1`, the Potency is reported as inconclusive [inhibitor, full curve]. In the case of `O=C(NCC(c1ccccc1)c1ccccc1)c1nn(-c2ccccc2F)nc1CO`, the “activity change, negative = inhibition” value is reported as inactive: 16.6%. `N#CCCN/N=C(\Cc1nc2ccccc2[nH]1)c1ccccc1` was tested, and the “activity change, negative = inhibition” value was inactive: -10.9%. For `CC(OC(=O)c1ccc(Cl)nc1)C(=O)Nc1ccc(S(=O)(=O)N2CCCC2)cc1` (stereo unspecified), the Potency was inconclusive [inhibitor, partial curve, poor fit]. With `COc1cccc(C2(c3cccc(OC)c3)CC2C(=O)Nc2ccccc2Cl)c1` (stereo unspecified) the Potency was inconclusive [inhibitor, full curve]. With `CCOC(=O)C1CCN(C(=O)C23CC4CC(CC(C4)C2)C3)CC1` the Potency was inconclusive [inhibitor, full curve, poor fit]. `CC1CC(C)CN(CCCNC(=O)C2CCN(c3nnc(-n4cccc4)s3)CC2)C1` (stereo unspecified) was tested, and the Potency was inconclusive [inhibitor, partial curve]. `COCCN1C=C2C(=O)C(C)(OC(=O)CCC(=O)OC)C(=O)C=C2C=C1C1CC1` (stereo unspecified) was tested, and the “activity change, negative = inhibition” value was inactive: 0.117%. With `Cc1cc(-c2csc(N)n2)c(C)n1CCc1ccccc1` the Potency was inconclusive [inhibitor, full curve]. In the case of `CC(OC(=O)CCN=C1NS(=O)(=O)c2ccccc21)C(=O)N(C)c1ccccc1` (stereo unspecified), the Potency is reported as inconclusive [inhibitor, single point]. `O=C(NCCc1c[nH]c2ccccc12)C1CCC(=O)N(CCc2cccc(F)c2)C1` (stereo unspecified) was tested, and the Potency was inconclusive [inhibitor, partial curve, poor fit].
